Test results published in publication PMC4336329 (PLoS ONE, 2015).
Screen size: about 310,000 compounds; about 2,200 (0.71%) showed an effect of 50% or more. The effect is printed as a negative number. The list shows a part of the results.

The compounds below were run against human ether-à-go-go-related gene (hERG) potassium channel (human, UniProt Q12809) (assay: primary screen, population patch clamp on CHO cells stably expressing hERG).
Sequence of human ether-à-go-go-related gene (hERG) potassium channel (Q12809 whole entry, looked up): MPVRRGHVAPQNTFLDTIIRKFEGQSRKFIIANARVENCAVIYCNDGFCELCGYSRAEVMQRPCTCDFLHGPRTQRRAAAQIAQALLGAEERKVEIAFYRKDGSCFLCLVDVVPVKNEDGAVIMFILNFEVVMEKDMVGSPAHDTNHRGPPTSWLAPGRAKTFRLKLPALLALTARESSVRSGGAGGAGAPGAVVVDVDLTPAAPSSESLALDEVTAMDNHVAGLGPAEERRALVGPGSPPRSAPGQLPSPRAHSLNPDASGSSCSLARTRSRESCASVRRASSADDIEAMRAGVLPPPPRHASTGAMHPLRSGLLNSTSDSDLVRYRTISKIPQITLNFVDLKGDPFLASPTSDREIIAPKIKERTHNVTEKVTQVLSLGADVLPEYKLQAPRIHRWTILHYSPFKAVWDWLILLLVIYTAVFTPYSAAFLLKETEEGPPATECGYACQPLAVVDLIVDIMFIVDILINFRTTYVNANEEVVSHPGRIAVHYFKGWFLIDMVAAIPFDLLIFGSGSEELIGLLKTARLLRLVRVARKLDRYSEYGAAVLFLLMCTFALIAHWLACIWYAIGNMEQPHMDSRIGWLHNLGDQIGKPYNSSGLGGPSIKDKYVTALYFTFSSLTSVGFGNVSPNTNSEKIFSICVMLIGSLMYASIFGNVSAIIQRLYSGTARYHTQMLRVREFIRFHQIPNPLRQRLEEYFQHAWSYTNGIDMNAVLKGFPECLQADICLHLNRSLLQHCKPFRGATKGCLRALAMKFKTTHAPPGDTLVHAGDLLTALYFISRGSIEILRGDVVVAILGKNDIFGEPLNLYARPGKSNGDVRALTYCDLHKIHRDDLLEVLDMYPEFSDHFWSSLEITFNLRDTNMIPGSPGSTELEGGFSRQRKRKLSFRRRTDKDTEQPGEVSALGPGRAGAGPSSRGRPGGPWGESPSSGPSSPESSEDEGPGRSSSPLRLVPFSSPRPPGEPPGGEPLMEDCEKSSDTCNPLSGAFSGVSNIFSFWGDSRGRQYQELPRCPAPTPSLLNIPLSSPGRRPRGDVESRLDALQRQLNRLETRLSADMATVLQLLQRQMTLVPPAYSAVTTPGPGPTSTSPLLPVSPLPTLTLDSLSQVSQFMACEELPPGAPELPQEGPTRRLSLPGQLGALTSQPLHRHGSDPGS

Row | SMILES | hERG current change (%, negative = inhibition) at 1uM
1 | CCCCCOCC(O)CCC(=O)NN (centres unmarked) | 21.2%
2 | Cc1ccccc1C(C(=O)NC1CCCC1)N(C(=O)Cc1cccs1)c1ccc2c(c1)OCCO2 (centres unmarked) | 7.29%
3 | CCOc1ccc(N2CC(C(=O)N3CCN(C(=O)c4ccco4)CC3)CC2=O)cc1 (centres unmarked) | -41.3%
4 | COc1ccc(CC(=O)Nc2ccc3c(c2)CCC3)cc1S(=O)(=O)N1CCOCC1 | 4.84%
5 | C[C@H](NC(=O)[C@@H]1Cc2ccccc2CN1C(=O)OC(C)(C)C)C(=O)NCC1CCCO1 (some centres unmarked) | 22%
6 | COc1ccc(NC(=O)C(C)(C)Oc2ccc(Cl)cc2)cn1 | -5.55%
7 | CCCOc1ccc(N2C(=O)CC(NCc3cccs3)C2=O)cc1 (centres unmarked) | 0.643%
8 | CCNC(=O)Cn1cnc2c1c(=O)n(C)c(=O)n2C | 14.7%
9 | CC(C)(C)c1cc(NC(=O)c2ccco2)no1 | -2.49%
10 | Cc1ccc2c(c1)C1CC(C)(O2)N(c2cccc(C(=O)NCc3ccccn3)c2)C(=O)N1 (centres unmarked) | 16.8%
11 | COc1ccc(NC(=S)Nc2cccc([N+](=O)[O-])c2)cc1 | 11.7%
12 | CCOC(=O)c1cnc(SCC(=O)c2ccc(C)cc2)nc1N | 15.5%
13 | O=C(COC(=O)c1cc(S(=O)(=O)N2CCOCC2)ccc1Cl)NCCc1ccccc1 | -4.44%
14 | CC(O)CN1CCN(C(=O)CN2C(=O)NC(c3ccccc3)(c3ccccc3)C2=O)CC1 (centres unmarked) | 8.29%
15 | CCOC(=O)C1=C(C)NC(=O)NC1c1cccnc1 (centres unmarked) | -0.592%
16 | COC(=O)c1ccc(-c2ncc[nH]2)cc1 | 10%
17 | COc1ccc(C(=O)CN2CCN(CCN3C(=O)c4cccc5cccc(c45)C3=O)CC2)cc1 | -2.64%
18 | COc1ccc(OC)c(NC(=O)NCc2cccnc2)c1 | 4.53%
19 | COC(=O)c1sccc1NC(=O)/C=C/c1ccc(Cl)cc1Cl | 12.3%
20 | O=C(NCc1ccc(S(=O)(=O)Nc2ccccc2Cl)s1)c1ccccc1 | 8.93%
21 | O=C(Nc1cccc(S(=O)(=O)N2CCCC2)c1)c1ccncc1 | -18.1%
22 | COc1ccc(CC(=O)N2CCCC(C)C2)cc1 (centres unmarked) | 13.2%

Row | SMILES | hERG current change (%, negative = inhibition) at 1uM
23 | COc1ccc(-c2ccc(C(C)=O)cc2)cc1[C@H]1[C@@H]2C=CCC[C@@]2(C)C(=O)N1Cc1ccccc1 | 21.9%
24 | COc1ccc(/C=C(\NC(=O)c2ccc(C)cc2)C(=O)NCCCn2ccnc2)cc1OC | 12.1%
25 | CCOC(=O)c1ccc(N2C(=O)CC(C)(CC)CC2=O)cc1 | 11.3%
26 | Cc1ccccc1C(=O)Nc1ccccc1NC(=O)c1ccccc1Br | 14.4%
27 | Fc1cccc(Cc2noc(CN3CCN(C4CCc5ccccc5C4)CC3)n2)c1 (centres unmarked) | -67.5%
28 | Cc1onc(-c2ccccc2)c1C(=O)c1c[nH]c(C(=O)NCc2ccncc2)c1 | 2.86%
29 | CCC(c1nnnn1Cc1ccccc1)N(Cc1ccco1)Cc1cc2cc(OC)ccc2[nH]c1=O (centres unmarked) | -0.423%
30 | COc1ccc(N2CCN(C(=O)CSc3nnnn3C3CC3)CC2)cc1 | 6.75%
31 | CC12C=CC3(O1)C(C(=O)N(c1cccnc1)C3C(=O)NC1CCCCC1)C2C(=O)Nc1ccccc1 (centres unmarked) | 23.5%
32 | CCCCn1c(N)c(N(CCOC)C(=O)C(C)Oc2ccc(Cl)cc2)c(=O)[nH]c1=O (centres unmarked) | 3.51%
33 | O=C(CNS(=O)(=O)c1ccccc1)OCC(=O)c1ccc(OC(=O)c2ccccc2)cc1 | 0.118%
34 | Cn1c(=O)c2c(ncn2CC(=O)N2CCCCCC2)n(C)c1=O | 14.5%
35 | CCCCNc1c(-c2cccc(-c3ccc(OC)cc3)c2)nc2ccc(C)cn12.O=C(O)C(F)(F)F | 4.1%
36 | CNNC(=S)NCCC1=CCCCC1 | 10.2%
37 | COc1ccc(N2CCN(S(=O)(=O)CCNC(=O)COc3ccc(Cl)cc3)CC2)cc1 | 28.3%
38 | N#Cc1ccccc1OCC(=O)NC(N)=O | 8.8%
39 | CC1Cc2ccccc2N1C(=O)CCn1c(=O)sc2ccccc21 (centres unmarked) | 16.7%
40 | Cc1cccc(C)c1N(CC(O)Cn1c2ccccc2c2ccccc21)S(C)(=O)=O (centres unmarked) | 20.5%
41 | COc1ccc(N(CC(=O)NCCc2ccc(OC)c(OC)c2)S(=O)(=O)c2c(C)noc2C)cc1 | 3.54%
42 | COc1ccc(C(=O)/C=C/Sc2nc3ccccc3o2)cc1 | 15.9%
43 | COC(=O)c1cccc2c1-c1ccccc1/C2=N\NC(N)=O | 8.56%
44 | COc1cc(OC)cc(-c2nc(SCC(=O)Nc3ccccc3F)n[nH]2)c1 | 11.9%
